Assay results reported in patent US20130337564A1, “Treatment of Pluripotent Cells” (Janssen Biotech, Inc., priority 2012, published 2013).
Several values for one entry are separate records, joined by “and”; a condition that tells them apart may be missing. Identical values can stand only once. The name of at least one read-out is uncertain.

What was measured:
Type in all cases: cell-based
[1] = tested on: human embryonic stem cells (H9 line); test: High content screening assay: cell number (proliferative response)
Description: (§1) Maintenance of human embryonic stem cells (H9 line) was conducted as described in Example 1. Colonies of cells were maintained in an undifferentiated, pluripotent state with passage on average every four days. Passage was performed by exposing cell cultures to a solution of collagenase (1 mg/ml; Sigma-Aldrich) for 10 to 30 minutes at 37° C. followed by gentle scraping with a pipette tip to recover cell clusters. Clusters were allowed to sediment by gravity, followed by washing to remove residual collagenase. Cell clusters were split at a 1:3 ratio for routine maintenance culture or a 1:1 ratio for immediate assay. The human embryonic stem cell lines used were maintained at passage numbers less than passage 50 and routinely evaluated for normal karyotypic phenotype and absence of mycoplasma contamination.
(§2) Cell clusters used in the assay were evenly resuspended in normal culture medium and plated onto MATRIGEL-coated 96-well Packard VIEWPLATES (PerkinElmer) in volumes of 100 μA/well. MEF conditioned medium supplemented with 8 ng/ml bFGF was used for initial plating and recovery. Daily feeding was conducted by aspirating spent culture medium from each well and replacing with an equal volume of fresh medium. Plates were maintained at 37° C., 5% CO2 in a humidified box throughout the duration of assay.
(§3) Screening was conducted using test compounds from a proprietary library of small molecules selected for their ability to inhibit GSK-3B enzyme activity. Compounds from this library were made available as 1 mM stocks, in a 96-well plate format in 50 mM HEPES, 30% DMSO. Screening compounds were tested in triplicate or duplicate sets. Primary screening assays were initiated by aspirating culture medium from each well followed by three washes in PBS to remove residual growth factors and serum. Test volumes of 80 to 100 μl per well were added back containing DMEM:F12 base medium (Invitrogen) supplemented with 0.5% FCS (HyClone) and 100 ng/ml activin A (R&D Biosystems) plus 10 μM test compound. Positive control wells contained the same base medium, substituting 10-20 ng/ml Wnt3a (R&D Biosystems) for the test compound. Negative control wells contained base medium with 0.5% FCS and activin A alone (AA only) or alternatively, 0.5% FCS without activin A or Wnt3a (no treatment). Wells were aspirated and fed again with identical solutions on day 2 of assay. On days 3 and 4, all assay wells were aspirated and converted to DMEM:F12 supplemented with 2% FCS and 100 ng/ml activin A (without test compound or Wnt3a); parallel negative control wells were maintained in DMEM:F12 base medium with 2% FCS and activin A (AA only) or alternatively, 2% FCS without activin A (no treatment).
(§4) At the end of culture, cells in 96-well plates were fixed with 4% paraformaldehyde at room temperature for 20 minutes, washed three times with PBS, and then permeabilized with 0.5% Triton X-100 for 20 minutes at room temperature. Alternatively, cells were fixed with ice cold 70% ethanol overnight at −20° C., washed three times with PBS, and then permeabilized with Triton X-100 for 5 minutes at 4° C. After fixing and permeabilizing, cells were washed again three times with PBS and then blocked with 4% chicken serum (Invitrogen) in PBS for 30 minutes at room temperature. Primary antibodies (goat anti-human Sox17 and goat anti-human HNF-3beta; R&D Systems) were diluted 1:100 in 4% chicken serum and added to cells for one hour at room temperature. Alexa Fluor 488 conjugated secondary antibody (chicken anti-goat IgG; Molecular Probes) was diluted 1:200 in PBS and added after washing the cells three times with PBS. To counterstain nuclei, 5 mM Draq5 (Alexis Biochemicals) was added for five minutes at room temperature. Cells were washed once with PBS and left in […] PBS for imaging.
(§5) Cells were imaged using an IN Cell Analyzer 1000 (GE Healthcare) utilizing the 51008bs dichroic for cells stained with Draq5 and Alexa Fluor 488. […]

[2] = tested on: HNF-3beta expression in human embryonic stem cells (H9 line); test: High content screening assay: HNF-3beta protein expression (differentiation); settings: for HNF-3b Expression Fold over Wnt 3a/AA control: total intensity normalised to Wnt 3a/AA control
Description: as §1, §2, §3, §4, §5

[3] = tested on: Sox17 expression in human embryonic stem cells (H9 line); test: High content screening assay: Sox17 protein expression (differentiation); settings: total intensity normalised to Wnt 3a/AA control
Description: as §1, §2, §3, §4, §5

[4] = tested on: human embryonic stem cells (H9 or H1 lines); test: Plate reader (MTS) proliferation assay; settings: for Raw Data: replicate wells, plate reader proliferation screen of GSK-3B inhibitors
Description: Maintenance of human embryonic stem cells (H9 or H1 lines) was conducted as described in Example 1. Colonies of cells were maintained in an undifferentiated, pluripotent state with passage on average every four days. Passage was performed by exposing cell cultures to a solution of collagenase (1 mg/ml; Sigma-Aldrich) for 10 to 30 minutes at 37° C. followed by gentle scraping with a pipette tip to recover cell clusters. Clusters were allowed to sediment and washed to remove residual collagenase. Cell clusters were split at a ratio of 1:3 monolayer area for routine culture or a 1:1 ratio for immediate assay. The human embryonis stem cell lines used for these examples were maintained at passage numbers less than 50 and routinely evaluated for normal karyotypic phenotype as well as absence of mycoplasm contamination.
as §2, with “in” for “in the”, “into” for “onto”, “μl/well.” for “μA/well.”, “bFGF)” for “bFGF”, “C.” for “C., 5% CO2”, “box, 5% CO2” for “box”
Primary screening assays were initiated by aspirating culture medium from each well followed by three washes in PBS to remove residual growth factors and serum. Test volumes of 80-100 μl per well were added back containing DMEM:F12 base medium (Invitrogen) supplemented with 0.5% FCS (HyClone) and 100 ng/ml activin A (R&D Biosystems) and 10 μM test compound. Positive control wells contained the same medium substituting 10-20 ng/ml Wnt3a (R&D Biosystems). Negative control wells contained base medium with 0.5% FCS without activin A or Wnt3a. Screening compounds were tested in triplicate. Wells were aspirated and fed again with identical solutions on day 2 of the assay. On days 3 and 4, all assay wells were aspirated and converted to DMEM:F 12 supplemented with 2% FCS and 100 ng/ml activin A with the exception of negative control wells which were maintained in DMEM:F12 base medium with 2% FCS.
On day 4 of assay, 15-20 μl of MTS (Promega) was added to each well and plates were incubated at 37° C. for 1.5 to 4 hours. Densitometric readings at OD490 were determined using a Molecular Devices spectrophotometer plate reader. Average readings for replicate sets were calculated along with standard deviation and coefficient of variation. Experimental wells were compared to the Activin A/Wnt3a positive control to calculate a percent control value as a measure of proliferation.
Strong hits are defined as greater than or equal to 120% of control values; moderate hits are defined as falling within the interval of 60-120% of control values. A significant number of compounds induce a proliferative response in this assay.

[5] = cell number in the wells analysed for HNF-3b expression, normalised to Wnt 3a/AA control
[6] = cell number in the wells analysed for SOX-17 expression, normalised to Wnt 3a/AA control
[7] = relative to AA/Wnt3a/DMSO positive control (100.0) of the same plate
[8] = proliferation of human embryonic stem cells, AA/Wnt3a = 100.0, no cells = 0.0

| SMILES | Proliferative Response Fold over Wnt 3a/AA control [1, 5] [fold] | Proliferative Response Fold over Wnt 3a/AA control [1, 6] | HNF-3b Expression Fold over Wnt 3a/AA control [2] [fold] | SOX-17 Expression Fold over Wnt 3a/AA control [3] | Proliferative Response Fold over Wnt 3a/AA control ([1]; 10 μM test compound with 100 ng/ml activin A on days 1-2, H9, total cell number by IN Cell Analyzer, strong and moderate hits) | % Control [4, 7] [%] | Raw Data [4] | Proliferative Response Total cells ([1]; cell number in the wells analysed for HNF-3b expression) | HNF-3b Expression Total Intensity ([2]; total intensity) | % Control [4, 8] [%] |
| --- | --- | --- | --- | --- | --- | --- | --- | --- | --- | --- |
| CN(C)CCCn1nc(C2=C(c3cn(-c4cccc5ccccc45)c4ccccc34)C(=O)NC2=O)c2ccccc21 [Compound 8] | 1.009 | 0.7161 fold | 0.7428 | 0.8534 fold | – | – | – | – | – | – |
| O=C1NC(=O)C(c2cn(-c3cncnc3)c3ccccc23)=C1c1cn(CCO)c2ccccc12 [Compound 230, 3-[1-(2-Hydroxyethyl)-1H-indol-3-yl]-4-(1-pyrimidin-5-yl-1H-indol-3-yl)-1H-pyrrole-2,5-dione] | 1.074 | 1.311 fold | 0.9499 | 1.1359 fold | 1.0736 Fold over Wnt 3a/AA control | 147.3 | 1.9718 and 2.0997 | – | – | – |
| CN(C)CCCn1cc(C2=C(c3ccccc3Cl)C(=O)NC2=O)c2cccnc21 [Compound 12, 3-(2-Chlorophenyl)-4-{1-[3-(dimethylamino)propyl]-1H-pyrrolo[2,3-b]pyridin-3-yl}-1H-pyrrole-2,5-dione] | 0.4773 | 0.3088 fold | 0.4565 | 0.5425 fold | – | – | – | – | – | – |
| O=C1NC(=O)C(c2cn(CCCO)c3ncccc23)=C1c1ccccc1C(F)(F)F [Compound 16, 3-[1-(3-Hydroxypropyl)-1H-pyrrolo[2,3-b]pyridin-3-yl]-4-[2-(trifluoromethyl)phenyl]-1H-pyrrole-2,5-dione] | – | 0.4408 fold and 0.3125 fold | – | 0.6476 fold and 0.3295 fold | – | – | – | 2522 and 1744 | 214575000 and 165365000 | 85.5 |
| O=C1NC(=O)C(c2cn(CCCO)c3ncccc23)=C1c1cn(CCCO)cn1 [Compound 182, 3-[1-(3-Hydroxypropyl)-1H-imidazol-4-yl]-4-[1-(3-hydroxypropyl)-1H-pyrrolo[2,3-b]pyridin-3-yl]-1H-pyrrole-2,5-dione] | 0.3353 | 0.01178 fold | 0.3242 | – | – | 30.4 | 0.2665 and 0.3215 and 0.2605 | – | – | – |
| Cn1cc(C2=C(c3nn(CCCn4ccnn4)c4ccccc34)C(=O)NC2=O)c2cc(Cl)ccc21 [Compound 232, 3-(5-Chloro-1-methyl-1H-indol-3-yl)-4-{1-[3-(1H-1,2,3-triazol-1-yl)propyl]-1H-indazol-3-yl}-1H-pyrrole-2,5-dione] | 0.9507 | 1.087 fold | 0.7711 | 1.0749 fold | – | 131.6 | 1.6935 and 1.9710 | – | – | – |
| CN(C)CCCn1cc(C2=C(c3cccc4ccccc34)C(=O)NC2=O)c2cccnc21 [Compound 175, 3-{1-[3-(Dimethylamino)propyl]-1H-pyrrolo[2,3-b]pyridin-3-yl}-4-naphthalen-1-yl-1H-pyrrole-2,5-dione] | 0.03339 | 0.0003992 fold | 0.0586 | – | – | 15.8 | 0.1560 and 0.1481 and 0.1359 | – | – | – |
| O=C1NC(=O)C(c2nn(CCCO)c3ccccc23)=C1c1cn(-c2ccc3ccccc3c2)c2ccccc12 [Compound 13] | 0.9023 | 0.6002 fold | 0.7104 | 0.8165 fold | – | – | – | – | – | – |
| O=C1NC(=O)C(c2cn(CCCO)c3ncccc23)=C1c1cc(Cl)sc1Cl [Compound 18, 3-(2,5-Dichlorothiophen-3-yl)-4-[1-(3-hydroxypropyl)-1H-pyrrolo[2,3-b]pyridin-3-yl]-1H-pyrrole-2,5-dione] | 0.00007770 | 0.001667 fold | 0.0002 | – | – | – | – | – | – | 3.1 |
| NCCCn1nc(C2=C(c3cn(-c4csc5ccccc45)c4ccccc34)C(=O)NC2=O)c2ccccc21 [Compound 4] | 0.5498 | 0.3657 fold | 0.2723 | 0.6161 fold | – | – | – | – | – | – |
| COc1ccccc1C1=C(c2cn(CCCNC(C)=O)c3ncccc23)C(=O)NC1=O [Compound 27, N-[3-(3-{4-[2-(Methyloxy)phenyl]-2,5-dioxo-2,5-dihydro-1H-pyrrol-3-yl}-1H-pyrrolo[2,3-b]pyridin-1-yl)propyl]acetamide] | 0.00009713 | 0.0025 fold | – | 0.0007 fold | – | – | – | – | – | −0.3 |
